# Experimental data as given in PubChem BioAssay AID504339 (National Center for Advancing Translational Sciences (NCATS), 2011).
# The whole screen tested about 390,000 compounds, of which about 17,000 (4.4%) were called active. The inconclusive results got no clear call from the source; some entries with a clear call stand among them for comparison. The call rests on the fitted dose curve; in most records, active means well fitted inhibition curve with a large enough effect; inconclusive means small, poorly fitted or top-dose-only effect; inactive means no such curve, though single readings can be large or run the other way. Potencies of inconclusive entries are doubtful fits and often do not repeat. Where a structure was tested more than once in an assay, its records may differ in their call.
# Target: Lysine-specific demethylase 4A (Homo sapiens) (UniProt O75164)
# Chain of UniProt O75164 (O75164 whole entry, looked up, the tested form may be a part): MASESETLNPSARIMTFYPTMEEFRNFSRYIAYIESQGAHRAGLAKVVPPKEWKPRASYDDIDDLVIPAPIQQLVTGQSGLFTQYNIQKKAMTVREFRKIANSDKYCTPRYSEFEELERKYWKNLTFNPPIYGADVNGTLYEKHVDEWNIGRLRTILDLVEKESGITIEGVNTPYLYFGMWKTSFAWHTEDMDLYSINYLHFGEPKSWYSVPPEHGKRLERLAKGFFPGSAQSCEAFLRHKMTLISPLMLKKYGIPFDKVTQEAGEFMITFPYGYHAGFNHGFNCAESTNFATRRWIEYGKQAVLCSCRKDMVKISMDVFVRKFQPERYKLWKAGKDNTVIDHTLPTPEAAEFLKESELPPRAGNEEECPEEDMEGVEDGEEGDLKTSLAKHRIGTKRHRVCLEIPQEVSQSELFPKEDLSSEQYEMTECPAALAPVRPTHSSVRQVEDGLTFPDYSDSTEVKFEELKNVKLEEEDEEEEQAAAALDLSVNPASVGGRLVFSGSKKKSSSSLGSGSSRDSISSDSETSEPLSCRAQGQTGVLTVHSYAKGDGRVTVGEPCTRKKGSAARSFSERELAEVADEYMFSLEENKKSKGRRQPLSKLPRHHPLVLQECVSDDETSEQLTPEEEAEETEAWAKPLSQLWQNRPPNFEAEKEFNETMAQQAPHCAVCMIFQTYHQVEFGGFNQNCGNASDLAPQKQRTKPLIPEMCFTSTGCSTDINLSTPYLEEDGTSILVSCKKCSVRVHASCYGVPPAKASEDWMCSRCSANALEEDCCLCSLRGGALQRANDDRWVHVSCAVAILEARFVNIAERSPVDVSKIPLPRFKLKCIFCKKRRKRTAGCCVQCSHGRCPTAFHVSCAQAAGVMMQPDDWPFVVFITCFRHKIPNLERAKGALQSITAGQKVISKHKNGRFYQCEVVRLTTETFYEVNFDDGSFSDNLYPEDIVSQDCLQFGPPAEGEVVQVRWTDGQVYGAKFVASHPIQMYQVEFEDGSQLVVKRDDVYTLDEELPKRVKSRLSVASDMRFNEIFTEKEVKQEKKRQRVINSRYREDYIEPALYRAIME
# Assay: qHTS Assay for Inhibitors of JMJD2A-Tudor Domain; further: nearly all actives have a fitted effect of over 50% in size
# Conditions: AlphaScreen JMJD2A-Tudor / H3K4me3 peptide binding; series mostly up to 114 µM
# Potency means the concentration at half of the fitted maximal effect; tags describe the fitted curve by direction and shape.
row,Compound,Potency
1,C=CCn1c(SCc2cc(=O)n3ccsc3n2)nc2sc(C)c(C)c2c1=O,"inconclusive: 50.1 µM [inhibitor, partial curve]"
2,Cc1oc2cc(O)ccc2c(=O)c1Oc1ccccc1,"inconclusive: 3.98 µM [inhibitor, single point]"
3,O=C(Nc1cc2c(cc1Br)OCCO2)c1cccnc1,inactive
4,O=C1OC(C(=O)Nc2cccc(Br)c2)Cc2ccccc21 (stereo not given),inactive
5,Cc1c(-c2csc(N)n2)c2ccccc2n1C,"inconclusive: 50.1 µM [inhibitor, partial curve]"
6,Cc1cccc(-n2ncc(C(=O)N3CCN(c4ccc(Cl)cc4)CC3)c2C2CCN(C(=O)OC(C)(C)C)CC2)c1,"inconclusive: 50.1 µM [inhibitor, partial curve]"
7,COc1cc(OC)cc(-c2n[nH]c(=S)n2-c2ccc3c(c2)OCO3)c1,active: 20 µM
8,Cc1ccc2c(c1)-c1c(ssc1=S)C(C)(C)N2C(=O)c1ccco1,"inconclusive: 3.16 µM [inhibitor, full curve, poor fit]"
9,CCc1ccc(NC(=O)CS(=O)CC(=O)Nc2ccc(-n3cnnn3)c(C)c2)cc1 (stereo not given),"inconclusive: 63.1 µM [inhibitor, partial curve, poor fit]"
10,O=c1nccc(N/N=C/c2ccccc2O)[nH]1,"inconclusive: 22.4 µM [inhibitor, full curve]"
11,Cc1ccc(N2CCN(c3ccc(NCc4nc5ccccc5n4C)cc3)CC2)cc1,"inconclusive: 35.5 µM [inhibitor, partial curve]"
12,Cc1cccc(C)c1Nc1nnc(SCC(=O)NCCCN2CCCC2=O)s1,"inconclusive: 100 µM [inhibitor, partial curve, poor fit]"
13,CN(C)CCCN(C(=O)COc1ccccc1)c1nc2ccc(Cl)cc2s1,inactive
14,CC(C)N1CCN(c2ccc(OCC3COC(Cn4cncn4)(c4ccc(Cl)cc4Cl)O3)cc2)CC1 (stereo not given),"inconclusive: 56.2 µM [inhibitor, partial curve]"
15,COc1cc(OC)c(OC)cc1/C=C1/Cc2ccccc2C1=O,inactive
16,O=C(O)C1C2C=CC(O2)C1C(=O)Nc1ccc(S(=O)(=O)Nc2ccccc2)cc1 (stereo not given),active: 79.4 µM
17,FC(F)(F)c1ccc(N=Cc2sc(N3CCOCC3)nc2-c2ccccc2)cc1,"inconclusive: 12.6 µM [inhibitor, partial curve]"
18,C=CCn1c(SCc2n[nH]c(=S)n2-c2ccccc2)nnc1-c1ccccc1,active: 11.2 µM
19,Cc1cc(N/N=C/c2c(O)ccc3ccccc23)nc(-c2ccccc2O)n1,"inconclusive: 22.4 µM [inhibitor, partial curve]"
20,Nc1ccc(C(=O)NC23CC4CC(CC(C4)C2)C3)cc1,inactive
21,Cc1cccc(Cn2c(=O)c3c(nc4n3CCCN4Cc3ccccc3)n(C)c2=O)c1,"inconclusive: 35.5 µM [inhibitor, partial curve]"
22,Cc1ccccc1OCc1nnc(SCc2cc(=O)[nH]c3ccccc23)n1-c1ccccc1,inactive
23,CC1CCN(Cc2c(O)ccc3c(=O)c(Oc4ccccc4Cl)c(C(F)(F)F)oc23)CC1,inactive
24,Cn1c(/N=C/c2cccs2)nc2ccccc21,inactive

row,Compound,Potency
1,COc1ccc(NC(=O)CC2C(=O)N(c3cccc(OC)c3)C(=O)N2CCc2cccs2)cc1 (stereo not given),inactive
2,COc1ccc2c(CC(=O)OCC(=O)Nc3cc(C)c(C)cc3[N+](=O)[O-])coc2c1,"inconclusive: 10 µM [inhibitor, full curve, poor fit]"
3,CNCCNC[C@H](Cc1cccc2ccccc12)NCCc1ccccc1,"inconclusive: 10 µM [inhibitor, full curve]"
4,COc1ccc(N2CCN(C(=O)c3ccc(CSc4ccccc4)cc3)CC2)cc1,"inconclusive: 11.2 µM [inhibitor, full curve]"
5,CC1=C/C(=N\NC(=O)c2ccc(O)cc2)CC1,"inconclusive: 0.631 µM [inhibitor, full curve, poor fit]"
6,Cc1sc(NC(=O)CCC(=O)O)c(C(N)=O)c1-c1ccccc1,"inconclusive: 89.1 µM [inhibitor, single point]"
7,COc1ccc(-n2c(-c3ccc(C)cc3)cc3c2CC(C)(C)CC3=O)cc1Cl,active: 31.6 µM
8,COc1ccc(-c2nc(SCC(=O)NC3CCCC3)c(-c3ccc(F)cc3)[nH]2)cc1,"inconclusive: 3.16 µM [inhibitor, partial curve, poor fit]"
9,O=C(CN(C(=O)C1CSC(=O)C1)c1cccc(F)c1)NCc1ccc2c(c1)OCO2 (stereo not given),inactive
10,OCCNc1nc2ccccc2n1-c1ncnc2sc3c(c12)CCC3,inactive
11,COc1cc(C)ccc1OC(C)C(=O)Nc1ccc(N2CCCCC2)cc1 (stereo not given),"inconclusive: 12.6 µM [inhibitor, full curve]"
12,Nc1nc(CN2CCC(Cc3ccccc3)CC2)nc(Nc2ccccc2)n1,"inconclusive: 100 µM [inhibitor, partial curve, poor fit]"
13,Cc1cc(C(=O)COc2cccnc2[N+](=O)[O-])c(C)n1-c1ccccc1F,"inconclusive: 50.1 µM [inhibitor, partial curve]"
14,CCN(CC)c1ccc(NC(=O)C2CCN(c3nnc(-n4cccc4)s3)CC2)c(C)c1,inactive
15,COc1cccc(/C=N/n2c(C3CCCCC3)n[nH]c2=S)c1,active: 31.6 µM
16,On1c(-c2ccccc2Cl)nc2ccccc21,inactive
17,CCCN(CC(=O)Nc1ccccc1C)C(=O)c1ccc(N2CCCC(C)C2)c([N+](=O)[O-])c1 (stereo not given),"inconclusive: 25.1 µM [inhibitor, full curve]"
18,Cc1cccc(N/N=C/c2ccc(C)s2)c1,"inconclusive: 44.7 µM [inhibitor, partial curve]"
19,COc1ccc2nc(/N=C/c3cccc(OC)c3O)sc2c1,inactive
20,CC1=C(c2ccc(Cl)cc2)S(=O)(=O)NC1=NCCCN1CCN(c2cc(C)ccc2C)CC1,active: 15.8 µM
21,CCN(Cc1nc2ccccc2c(=O)[nH]1)C(=O)c1cccc(OCc2c(C)noc2C)c1,inactive
22,CCOc1ccccc1NC(=O)CN1C(=O)COc2ccc(S(=O)(=O)N3CCOCC3)cc21,active: 15.8 µM
23,CCOC(=O)c1cc(-c2ccc(OC)cc2)n(CCC(=O)Nc2ccccc2OC)c1C,active: 28.2 µM
24,O=C(CSc1nccn1Cc1ccccc1)NCc1ccco1,"inconclusive: 39.8 µM [inhibitor, partial curve]"

row,Compound,Potency
1,Cc1ccc2[nH]c(=O)c(-c3nc4cc(C)ccn4c3NCc3ccco3)cc2c1,"inconclusive: 56.2 µM [inhibitor, partial curve]"
2,Cc1cccc2sc(N(Cc3cccnc3)C(=O)CCc3ccccc3)nc12,"inconclusive: 100 µM [inhibitor, partial curve, poor fit]"
3,CCOC(=O)CN1NC2(CCC(C(C)(C)C)CC2)NC1=S (stereo not given),active: 39.8 µM
4,S=c1[nH]c(-c2cccs2)cn1-c1ccccc1,"inconclusive: 15.8 µM [inhibitor, full curve]"
5,CCc1cc2cc(C)ccc2nc1SCC(=O)Nc1cc(C)on1,"inconclusive: 3.98 µM [inhibitor, single point]"
6,COc1ccccc1CNC(=O)C1CCCN(S(=O)(=O)c2ccc3c(c2)oc(=O)n3C)C1 (stereo not given),"inconclusive: 5.01 µM [inhibitor, full curve, poor fit]"
7,CCCC(c1nnnn1C1CCCC1)N1CCN(C(=O)c2ccco2)CC1 (stereo not given),"inconclusive: 79.4 µM [inhibitor, single point]"
8,CCN(CC)c1ccc(NS(=O)(=O)c2ccc3c(c2)oc(=O)n3C)c(C)c1,"inconclusive: 39.8 µM [inhibitor, partial curve]"
9,CCC1Oc2ccc(C)cc2N(CC(=O)N2CCN(c3ccc(F)cc3)CC2)C1=O (stereo not given),"inconclusive: 56.2 µM [inhibitor, partial curve]"
10,O=C(O)c1cccc(S(=O)(=O)Nc2ccc(-c3ccccc3)cc2)c1,inactive
11,C/C(=N\NC(=O)c1ccc(Br)cc1)C1C(=O)c2ccccc2C1=O,"inconclusive: 56.2 µM [inhibitor, partial curve]"
12,O=C(NC1CC(=O)N(c2ccc(F)cc2)C1)c1ccc(S(=O)(=O)N2CCCCC2)cc1 (stereo not given),"inconclusive: 50.1 µM [inhibitor, partial curve]"
13,O=C(Nc1ccc(C(=O)O)cc1)/C(=C\c1ccco1)NC(=O)c1ccc(Br)o1,"inconclusive: 31.6 µM [inhibitor, single point]"
14,O=C(NCc1cccs1)c1ccc2c(=O)n3nc(Nc4ccccc4)sc3nc2c1,"inconclusive: 89.1 µM [inhibitor, single point]"
15,COc1ccccc1N1CCN(c2nc3c(C)cccn3c(=O)c2C=O)CC1,"inconclusive: 79.4 µM [inhibitor, partial curve]"
16,O=C(CCN1C(=O)/C(=C\C=C\c2ccccc2)SC1=S)Nc1ccccc1C(=O)O,active: 44.7 µM
17,O=C(O)c1ccc2c(c1)ncn2C1CCCCCC1,"inconclusive: 100 µM [inhibitor, single point]"
18,Cc1c(NC(=O)/C(C#N)=C/c2ccc(-c3ccc(Cl)c(Cl)c3)o2)c(=O)n(-c2ccccc2)n1C,"inconclusive: 50.1 µM [inhibitor, partial curve]"
19,O=[N+]([O-])c1ccccc1NCCNc1ncc(C(F)(F)F)cc1Cl,"inconclusive: 56.2 µM [inhibitor, partial curve]"
20,COc1cc(CN2CCCN(C)CC2)cc([N+](=O)[O-])c1O,active: 0.891 µM
21,Cc1oc(-c2cccc(Cl)c2)nc1CSc1nncn2c1cc1occc12,inactive
22,CN(C)c1ccc(CN(Cc2ccco2)C(=O)c2ccc(C(C)(C)C)cc2)cc1,active: 12.6 µM
